The values that follow come from publication PMC12660392 (2025).

The target in experiment [1] is T1, IL-2 receptor on PHA-activated PBMC (Homo sapiens, UniProt P01589).
T1 chain 1: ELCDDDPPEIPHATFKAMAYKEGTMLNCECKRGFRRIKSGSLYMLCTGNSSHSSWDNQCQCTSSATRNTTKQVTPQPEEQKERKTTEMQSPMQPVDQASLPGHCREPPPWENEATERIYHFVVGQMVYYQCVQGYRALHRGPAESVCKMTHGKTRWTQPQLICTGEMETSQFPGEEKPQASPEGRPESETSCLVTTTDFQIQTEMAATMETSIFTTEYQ
T1 chain 2: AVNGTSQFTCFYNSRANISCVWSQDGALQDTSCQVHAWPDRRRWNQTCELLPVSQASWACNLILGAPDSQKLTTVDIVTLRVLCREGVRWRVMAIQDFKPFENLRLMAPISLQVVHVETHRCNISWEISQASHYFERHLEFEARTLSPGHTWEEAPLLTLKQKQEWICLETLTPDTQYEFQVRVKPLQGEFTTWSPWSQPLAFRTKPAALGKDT
T1 chain 3: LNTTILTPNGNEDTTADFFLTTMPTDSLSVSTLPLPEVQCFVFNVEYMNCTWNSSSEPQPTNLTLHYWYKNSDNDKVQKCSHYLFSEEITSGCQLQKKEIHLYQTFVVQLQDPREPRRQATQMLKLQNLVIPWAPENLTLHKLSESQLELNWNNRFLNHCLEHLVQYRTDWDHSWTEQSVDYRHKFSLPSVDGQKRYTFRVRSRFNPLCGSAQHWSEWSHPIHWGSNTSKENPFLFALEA
Kind of experiment: LigandTracer kinetic cell binding assay (single experiment, Fig. 2C).

Experiment [2] has as its target T1, IL-2 receptor on PHA-activated PBMC. The experiment is described as follows: LigandTracer kinetic cell binding assay (single experiment, Fig. 2B).

B1: Aldesleukin (NODAGA-desIL2) (protein)
chain: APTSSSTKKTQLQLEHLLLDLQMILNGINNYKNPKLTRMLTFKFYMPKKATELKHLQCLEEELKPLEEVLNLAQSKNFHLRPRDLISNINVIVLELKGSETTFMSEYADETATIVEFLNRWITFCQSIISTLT
By Kd is commonly meant the concentration at which binding is half-saturated. Higher therefore signals lower affinity. In experiment [1], B1 showed a Kd of 48.7 nM. This lies in the double-digit nanomolar range.

B2: Aldesleukin (THP-desIL2) (protein)
chain: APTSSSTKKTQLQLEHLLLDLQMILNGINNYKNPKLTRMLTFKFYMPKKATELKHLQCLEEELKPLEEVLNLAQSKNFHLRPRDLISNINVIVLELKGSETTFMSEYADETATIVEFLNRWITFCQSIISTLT
As to B2, binding in experiment [2] was characterised by a dissociation constant (Kd) of 0.863 nM.
